Some of the results follow. Values were computed here from the reads of four pooled replicates and scatter widely.
Each sequence was assayed against T1, Pho4 (S. cerevisiae) (UniProt P07270) (assay: relative binding free energy (BET-seq); higher = weaker binding). Settings: reference: library average.
T1 sequence: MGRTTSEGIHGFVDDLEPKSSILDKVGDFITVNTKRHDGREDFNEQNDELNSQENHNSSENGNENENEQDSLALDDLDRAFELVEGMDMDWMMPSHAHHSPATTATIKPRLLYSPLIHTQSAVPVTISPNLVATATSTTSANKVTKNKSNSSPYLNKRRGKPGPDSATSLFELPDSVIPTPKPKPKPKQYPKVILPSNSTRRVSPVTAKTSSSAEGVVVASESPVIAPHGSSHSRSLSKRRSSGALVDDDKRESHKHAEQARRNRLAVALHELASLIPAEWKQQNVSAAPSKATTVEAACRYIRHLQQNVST
In the case of AAGTTCACGTGATTTA, the “relative binding free energy” value is reported as 0.24 kcal/mol. In the case of TTTCTCACGTGAAGTT, the “relative binding free energy” value is reported as 0.33 kcal/mol. GTTAGCACGTGTAGAG was tested, and the “relative binding free energy” value was -0.06 kcal/mol. For ATCGGCACGTGTTGTA, the “relative binding free energy” value was -0.1 kcal/mol. For CTGGTCACGTGTTAAG, the “relative binding free energy” value was 0.25 kcal/mol. In the case of AGGTTCACGTGTGGAG, the “relative binding free energy” value is reported as 0.3 kcal/mol. With TGAGGCACGTGTGTGG the “relative binding free energy” value was -0.05 kcal/mol. In the case of GGGTCCACGTGTCTTG, the “relative binding free energy” value is reported as 0.11 kcal/mol. In the case of CGTGGCACGTGTATTA, the “relative binding free energy” value is reported as -0.11 kcal/mol. With TGGGGCACGTGTTCTA the “relative binding free energy” value was -0.04 kcal/mol. For GGGGTCACGTGATTTT, the “relative binding free energy” value was 0.41 kcal/mol. In the case of TTTGGCACGTGGTTGC, the “relative binding free energy” value is reported as -0.12 kcal/mol. With GTCAGCACGTGGAGTT the “relative binding free energy” value was 0.05 kcal/mol. For TGTGACACGTGAGGGT, the “relative binding free energy” value was 0.24 kcal/mol. In the case of TTGAGCACGTGGTTCT, the “relative binding free energy” value is reported as -0.08 kcal/mol. In the case of GGAAGCACGTGCAGGT, the “relative binding free energy” value is reported as 0.01 kcal/mol. In the case of TCGGTCACGTGGCCGG, the “relative binding free energy” value is reported as 0.07 kcal/mol. In the case of GTTGACACGTGGTCGA, the “relative binding free energy” value is reported as -0.11 kcal/mol. In the case of AGTGACACGTGTACGG, the “relative binding free energy” value is reported as -0.06 kcal/mol. With TATGCCACGTGTTGTG the “relative binding free energy” value was -0.03 kcal/mol. For GGTTGCACGTGTAGCG, the “relative binding free energy” value was 0.15 kcal/mol. With TTTTGCACGTGCGGGT the “relative binding free energy” value was -0.04 kcal/mol. With CAAGGCACGTGCGGTA the “relative binding free energy” value was -0.04 kcal/mol. In the case of TGGTACACGTGTGAGA, the “relative binding free energy” value is reported as 0.19 kcal/mol. In the case of TAAGGCACGTGTAACG, the “relative binding free energy” value is reported as 0.03 kcal/mol. TGGGGCACGTGGTTCC was tested, and the “relative binding free energy” value was -0.12 kcal/mol. GTAATCACGTGGTGTT was tested, and the “relative binding free energy” value was 0.05 kcal/mol. ATCGTCACGTGCGTGG was tested, and the “relative binding free energy” value was -0.02 kcal/mol. In the case of ATGGGCACGTGAAAGG, the “relative binding free energy” value is reported as 0.1 kcal/mol. In the case of GGTAGCACGTGTTTCT, the “relative binding free energy” value is reported as 0.03 kcal/mol. With CGCGGCACGTGGATTG the “relative binding free energy” value was 0.14 kcal/mol. GGGGGCACGTGCGATG was tested, and the “relative binding free energy” value was -0.05 kcal/mol. With TTGTGCACGTGGTGAG the “relative binding free energy” value was -0.06 kcal/mol. TTAAGCACGTGGGAGA was tested, and the “relative binding free energy” value was -0.14 kcal/mol. With CGATACACGTGGGGTA the “relative binding free energy” value was -0.08 kcal/mol. GGTAACACGTGGGGAT was tested, and the “relative binding free energy” value was 0.04 kcal/mol. In the case of TGGATCACGTGTGGCT, the “relative binding free energy” value is reported as 0.13 kcal/mol. In the case of ACGGACACGTGAGTGG, the “relative binding free energy” value is reported as 0.18 kcal/mol. With TTTATCACGTGGGATC the “relative binding free energy” value was 0.21 kcal/mol. GGGAGCACGTGGTTTA was tested, and the “relative binding free energy” value was -0.12 kcal/mol. GTTTGCACGTGGAGCG was tested, and the “relative binding free energy” value was -0.01 kcal/mol. GGGCGCACGTGAATTG was tested, and the “relative binding free energy” value was 0.2 kcal/mol. TAATACACGTGGTTGT was tested, and the “relative binding free energy” value was 0 kcal/mol. ATGATCACGTGTTAGT was tested, and the “relative binding free energy” value was 0.22 kcal/mol. In the case of CTAGTCACGTGGTCGG, the “relative binding free energy” value is reported as 0.09 kcal/mol. With TGTTACACGTGGCCTG the “relative binding free energy” value was -0.11 kcal/mol. GGTCACACGTGTTTAG was tested, and the “relative binding free energy” value was 0.21 kcal/mol. For GCGGGCACGTGCTGGG, the “relative binding free energy” value was -0.2 kcal/mol. In the case of TTGGGCACGTGTAATG, the “relative binding free energy” value is reported as 0.03 kcal/mol. TGTCGCACGTGTTTCG was tested, and the “relative binding free energy” value was -0.08 kcal/mol. TTTTTCACGTGGAGCT was tested, and the “relative binding free energy” value was 0.25 kcal/mol. With TGTCCCACGTGTGTTG the “relative binding free energy” value was -0.17 kcal/mol. TTGAGCACGTGCTGAG was tested, and the “relative binding free energy” value was -0.12 kcal/mol. With CAAGTCACGTGGGGCT the “relative binding free energy” value was -0.04 kcal/mol. For AGGATCACGTGGCCGG, the “relative binding free energy” value was 0.08 kcal/mol. With TCTGTCACGTGATATA the “relative binding free energy” value was 0.21 kcal/mol. In the case of AGTATCACGTGTTGTA, the “relative binding free energy” value is reported as 0.14 kcal/mol. In the case of TGATACACGTGTATAG, the “relative binding free energy” value is reported as -0.05 kcal/mol. For ATTAACACGTGAATGT, the “relative binding free energy” value was 0.24 kcal/mol. AGTGCCACGTGTTAGG was tested, and the “relative binding free energy” value was -0.06 kcal/mol. In the case of CTATTCACGTGGGGGA, the “relative binding free energy” value is reported as 0.15 kcal/mol. For GGTTTCACGTGGTCAA, the “relative binding free energy” value was 0.16 kcal/mol. In the case of GTTTGCACGTGGGTTT, the “relative binding free energy” value is reported as -0.03 kcal/mol. For TCAGGCACGTGGGATT, the “relative binding free energy” value was -0.07 kcal/mol. With GAGGCCACGTGGTGGG the “relative binding free energy” value was -0.14 kcal/mol. For TGTGTCACGTGACTAT, the “relative binding free energy” value was 0.24 kcal/mol. With ATGAGCACGTGGGTAC the “relative binding free energy” value was -0.2 kcal/mol. With ATGTTCACGTGATACA the “relative binding free energy” value was 0.34 kcal/mol. GCGGTCACGTGAATGG was tested, and the “relative binding free energy” value was 0.36 kcal/mol. In the case of TGCACCACGTGGGTTT, the “relative binding free energy” value is reported as -0.15 kcal/mol. With GTATGCACGTGGATGT the “relative binding free energy” value was -0.07 kcal/mol. GGGTGCACGTGGGTAT was tested, and the “relative binding free energy” value was -0.06 kcal/mol. With AATCGCACGTGCGTGT the “relative binding free energy” value was 0 kcal/mol. With TAACGCACGTGGGCGG the “relative binding free energy” value was -0.35 kcal/mol. With GTTGGCACGTGATTAA the “relative binding free energy” value was 0.09 kcal/mol. With CGAGACACGTGTTGGT the “relative binding free energy” value was -0.02 kcal/mol. For ACGGGCACGTGATATG, the “relative binding free energy” value was -0.05 kcal/mol. GTGGGCACGTGATATG was tested, and the “relative binding free energy” value was 0 kcal/mol. ATGCGCACGTGAGGGA was tested, and the “relative binding free energy” value was -0.02 kcal/mol. GGATTCACGTGGCGGT was tested, and the “relative binding free energy” value was 0.22 kcal/mol. TGGTTCACGTGAAACG was tested, and the “relative binding free energy” value was 0.55 kcal/mol. For AGATTCACGTGTTGAT, the “relative binding free energy” value was 0.2 kcal/mol. In the case of AACGGCACGTGTGAGT, the “relative binding free energy” value is reported as -0.01 kcal/mol. In the case of TTGAACACGTGAGGGC, the “relative binding free energy” value is reported as 0.39 kcal/mol. In the case of TTTCGCACGTGGCAGG, the “relative binding free energy” value is reported as 0 kcal/mol. In the case of GGCGGCACGTGCGTTG, the “relative binding free energy” value is reported as -0.14 kcal/mol. With GTTATCACGTGTTGAT the “relative binding free energy” value was 0.14 kcal/mol. With AGTTCCACGTGTCTGG the “relative binding free energy” value was 0.19 kcal/mol. In the case of ATGTTCACGTGCAGGG, the “relative binding free energy” value is reported as 0.12 kcal/mol. For ATTCTCACGTGTTTGG, the “relative binding free energy” value was 0.15 kcal/mol. For ACGTACACGTGTGGTT, the “relative binding free energy” value was 0.06 kcal/mol. In the case of GGTTCCACGTGGGTAG, the “relative binding free energy” value is reported as -0.06 kcal/mol. In the case of AATACCACGTGAGGTA, the “relative binding free energy” value is reported as 0.34 kcal/mol. For TGTGTCACGTGACGAT, the “relative binding free energy” value was 0.13 kcal/mol. For GGGTCCACGTGAGCGG, the “relative binding free energy” value was 0.3 kcal/mol. With GTGAACACGTGTAGAT the “relative binding free energy” value was 0.16 kcal/mol. For TGAATCACGTGGATAT, the “relative binding free energy” value was 0.04 kcal/mol. In the case of TTAGGCACGTGTCATT, the “relative binding free energy” value is reported as -0.18 kcal/mol. With GGTCTCACGTGAGAGT the “relative binding free energy” value was 0.4 kcal/mol. TAGTGCACGTGCTAGT was tested, and the “relative binding free energy” value was -0.1 kcal/mol. For TTGTGCACGTGAGGAG, the “relative binding free energy” value was 0.25 kcal/mol. CAGTACACGTGTGTGT was tested, and the “relative binding free energy” value was 0 kcal/mol. For ATGTACACGTGATAGT, the “relative binding free energy” value was 0.12 kcal/mol. With TTAGGCACGTGCAAAG the “relative binding free energy” value was -0.02 kcal/mol. With TATTACACGTGTTGAT the “relative binding free energy” value was 0.11 kcal/mol. With ATTGTCACGTGGTACT the “relative binding free energy” value was 0.08 kcal/mol. With TTTTACACGTGTTGCA the “relative binding free energy” value was 0.12 kcal/mol. In the case of TGTAACACGTGAGCTG, the “relative binding free energy” value is reported as 0.27 kcal/mol. ATTGGCACGTGATTTC was tested, and the “relative binding free energy” value was -0.02 kcal/mol. For CTAGACACGTGGTGGA, the “relative binding free energy” value was -0.09 kcal/mol. In the case of TTATACACGTGTGTAC, the “relative binding free energy” value is reported as 0.08 kcal/mol. For ATGGGCACGTGATTAC, the “relative binding free energy” value was 0.13 kcal/mol. In the case of GCAGGCACGTGGGGAA, the “relative binding free energy” value is reported as -0.18 kcal/mol. With GTCGCCACGTGGTTGG the “relative binding free energy” value was -0.15 kcal/mol. In the case of GAATGCACGTGCGTGT, the “relative binding free energy” value is reported as -0.01 kcal/mol.

— the BET-seq Pho4 binding data (Le et al. 2018)
